Consider 28 compounds from the supplement of paper PMC10037445.

± gives the standard deviation of the averaged measurements. The full ranking holds about 2,900 compounds; the median of “IRF Lucia reporter activity, fold change vs agonist alone” is about 0.9, and the highest 2% start at about 2.8. Some of the results follow.

Assay [1] has as its system RAW-Dual. In words: IRF Lucia reporter activity, fold change vs agonist alone; higher = enhanced IRF activity. Particulars: agonist: MPLA (TLR4) […]. The gist of the method: (§1)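 RAW-Dual macrophages were seeded in DMEM at 50,000 cells/well in 384-well plates, given 50 nL of library stock by pin tool, and given a PRR agonist 1 h later. Plates were held at 37 °C, 5% CO2 for 20 hours, after which supernatant was read for IRF by QuantiLuc luminescence and for NF-κB by QuantiBlue absorbance at 620 nm. Reporter activity is expressed as fold change over wells that received agonist alone. A well was called cytotoxic when IncuCyte confluency fell below 70% of agonist controls in both mask sets.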

Assay [2] has as its system RAW-Dual. The experiment in a line: IRF Lucia reporter activity, fold change vs agonist alone; cytotoxicity flag (confluency mask): not cytotoxic; higher = enhanced IRF activity. In a few lines: as §1
Assay [3] has as its system RAW-Dual. The experiment in a line: IRF Lucia reporter activity, fold change vs agonist alone; cytotoxicity flag (confluency mask): cytotoxic (confluency <70% of control); higher = enhanced IRF activity. The gist of the method:
as §1

Where [4] appears, read: library stock concentration (final ~1000-fold dilution): 10 mM, cytotoxicity flag (confluency mask): not cytotoxic.
The mark [5] stands for this setting: agonist: 3'3'-cGAMP (STING) 10 ug/mL.
Where [6] appears, read: library stock concentration (final ~1000-fold dilution): 10 mM, cytotoxicity flag (confluency mask): cytotoxic (confluency <70% of control).

For `CC1(c2nc3c(C(N)=O)cccc3[nH]2)CCCN1` (centres undefined), the “IRF Lucia reporter activity” value in the assay with RAW-Dual [1] (setting [4]) was found to be 0.639.

Regarding `CC1(c2nc3c(C(N)=O)cccc3[nH]2)CCCN1` (centres undefined) (library stock concentration (final ~1000-fold dilution): 10 mM), the “IRF Lucia reporter activity” value in the assay on RAW-Dual [2] (setting [5]) came to 0.573; in the assay on RAW-Dual [2] (agonist: LPS (TLR4) 0.1 ug/mL), 0.842.

With `CCc1cncnc1N1CCN(Cc2nc3cc(C(F)(F)F)ccc3[nH]2)CC1` (library stock concentration (final ~1000-fold dilution): 10 mM), the “IRF Lucia reporter activity” value in the assay with RAW-Dual [2] (setting [5]) is 0.539; with RAW-Dual [2] (agonist: LPS (TLR4) 0.1 ug/mL), 0.646.

`CCc1cncnc1N1CCN(Cc2nc3cc(C(F)(F)F)ccc3[nH]2)CC1`: the “IRF Lucia reporter activity” value in the assay on RAW-Dual [1] (setting [4]) turned out to be 0.88.

In the case of `COc1ccc(-n2c(C)c([N+](=O)[O-])c3ccc(O)cc32)cc1`, the “IRF Lucia reporter activity” value in the assay on RAW-Dual [1] (setting [4]) amounted to 0.517.

For `COc1ccc(-n2c(C)c([N+](=O)[O-])c3ccc(O)cc32)cc1` (library stock concentration (final ~1000-fold dilution): 10 mM), the “IRF Lucia reporter activity” value in the assay with RAW-Dual [2] (setting [5]) turned out to be 0.0617; with RAW-Dual [2] (agonist: LPS (TLR4) 0.1 ug/mL), 0.402.

Turning to `O=S(=O)(c1ccccc1)c1cnc2c(N3CCNCC3)cccc2c1`, the “IRF Lucia reporter activity” value with RAW-Dual [1] (setting [4]) stood at 1.04.

For the compound `O=S(=O)(c1ccccc1)c1cnc2c(N3CCNCC3)cccc2c1` (library stock concentration (final ~1000-fold dilution): 10 mM), the results for the “IRF Lucia reporter activity” value in the assay on RAW-Dual [2] (setting [5]) and in the assay on RAW-Dual [2] (agonist: LPS (TLR4) 0.1 ug/mL) were 0.934 and 1.02, respectively.

Take `NC(=O)N1CCC(CC(=O)N2CCC(C3c4ncc(Br)cc4CCc4cc(Cl)cc(Br)c43)CC2)CC1` (centres undefined) (library stock concentration (final ~1000-fold dilution): 10 mM): the “IRF Lucia reporter activity” value stood at 0.274 in the assay with RAW-Dual [3] (setting [5]) and 0.566 with RAW-Dual [3] (agonist: LPS (TLR4) 0.1 ug/mL).

Turning to `NC(=O)N1CCC(CC(=O)N2CCC(C3c4ncc(Br)cc4CCc4cc(Cl)cc(Br)c43)CC2)CC1` (centres undefined), the “IRF Lucia reporter activity” value in the assay with RAW-Dual [1] (setting [6]) was found to be 0.761.

With `CCOc1cc(C(C)(C)C)ccc1C1=NC(C)(c2ccc(Cl)cc2)C(C)(c2ccc(Cl)cc2)N1C(=O)N1CCN(CCCS(C)(=O)=O)CC1` (centres undefined) (library stock concentration (final ~1000-fold dilution): 10 mM), the “IRF Lucia reporter activity” value with RAW-Dual [3] (setting [5]) worked out at 0.153; in the assay with RAW-Dual [3] (agonist: LPS (TLR4) 0.1 ug/mL), 1.03.

Regarding `CCOc1cc(C(C)(C)C)ccc1C1=NC(C)(c2ccc(Cl)cc2)C(C)(c2ccc(Cl)cc2)N1C(=O)N1CCN(CCCS(C)(=O)=O)CC1` (centres undefined), the “IRF Lucia reporter activity” value in the assay with RAW-Dual [1] (setting [6]) was 0.942.

With `CCCC(=O)Nc1ccc(OCC(O)CNC(C)C)c(C(C)=O)c1.Cl` (centres undefined) (library stock concentration (final ~1000-fold dilution): 10 mM), the entries for the “IRF Lucia reporter activity” value in the assay with RAW-Dual [2] (setting [5]) and with RAW-Dual [2] (agonist: LPS (TLR4) 0.1 ug/mL) were 1.03 and 0.912, respectively.

As for `CCCC(=O)Nc1ccc(OCC(O)CNC(C)C)c(C(C)=O)c1.Cl` (centres undefined), the “IRF Lucia reporter activity” value with RAW-Dual [1] (setting [4]) turned out to be 1.08.

With `CC(C)c1ccc(C(=O)NC(=N)N)cc1S(C)(=O)=O` (library stock concentration (final ~1000-fold dilution): 10 mM), the “IRF Lucia reporter activity” value with RAW-Dual [2] (setting [5]) amounted to 0.998; in the assay with RAW-Dual [2] (agonist: LPS (TLR4) 0.1 ug/mL), 1.14.

Consider `CC(C)c1ccc(C(=O)NC(=N)N)cc1S(C)(=O)=O`, for which, in the assay on RAW-Dual [1] (setting [4]), the “IRF Lucia reporter activity” value was 1.15.

In the case of `NS(=O)(=O)NCCNc1nonc1C(=Nc1ccc(F)c(Br)c1)NO` (library stock concentration (final ~1000-fold dilution): 10 mM), the “IRF Lucia reporter activity” value in the assay with RAW-Dual [2] (setting [5]) is 1.13; with RAW-Dual [2] (agonist: LPS (TLR4) 0.1 ug/mL), 0.947.

`CN1CCN(CCCNc2ncc(Cl)c(-c3cc4c(C(=O)NC5CC5)cccc4s3)n2)CC1.Cl.Cl.Cl` (library stock concentration (final ~1000-fold dilution): 10 mM): the “IRF Lucia reporter activity” value is 0.171 ± 0.028 in the assay with RAW-Dual [2] (setting [5]) and 0.119 ± 0.032 with RAW-Dual [2] (agonist: LPS (TLR4) 0.1 ug/mL).

As for `COC1C(OC(=O)/C=C/C=C/C=C/C=C/C(=O)O)CCC2(CO2)C1C1(C)OC1CC=C(C)C` (centres undefined) (library stock concentration (final ~1000-fold dilution): 10 mM), the “IRF Lucia reporter activity” value in the assay on RAW-Dual [2] (setting [5]) was found to be 0.815; in the assay on RAW-Dual [2] (agonist: LPS (TLR4) 0.1 ug/mL) it was 0.977.

`Cl.O=c1n(CCCN2CCN(c3cccc(Cl)c3)CC2)nc2ccccn12` (library stock concentration (final ~1000-fold dilution): 2 mM): the “IRF Lucia reporter activity” value with RAW-Dual [2] (setting [5]) amounted to 0.845; with RAW-Dual [2] (agonist: LPS (TLR4) 0.1 ug/mL), 0.945.

For the compound `Cl.O=c1n(CCCN2CCN(c3cccc(Cl)c3)CC2)nc2ccccn12`, the “IRF Lucia reporter activity” value in the assay with RAW-Dual [1] (library stock concentration (final ~1000-fold dilution): 2 mM, cytotoxicity flag (confluency mask): not cytotoxic) stood at 1.28.

Take `CS(=O)(=O)O.Fc1ccc(C2CCNCC2COc2ccc3c(c2)OCO3)cc1` (centres undefined) (library stock concentration (final ~1000-fold dilution): 10 mM): the “IRF Lucia reporter activity” value with RAW-Dual [3] (setting [5]) is 0.828; in the assay on RAW-Dual [3] (agonist: LPS (TLR4) 0.1 ug/mL) it was 1.1.

Consider `CS(=O)(=O)O.Fc1ccc(C2CCNCC2COc2ccc3c(c2)OCO3)cc1` (centres undefined), for which the “IRF Lucia reporter activity” value with RAW-Dual [1] (setting [6]) is 1.64.

As for `C=CC(=O)Nc1cc(Nc2nccc(-n3cc(CN(C)C)c(-c4ccccc4)n3)n2)c(OC)cc1N1CCOCC1` (library stock concentration (final ~1000-fold dilution): 2 mM), the “IRF Lucia reporter activity” value with RAW-Dual [2] (setting [5]) turned out to be 0.583; in the assay on RAW-Dual [2] (agonist: LPS (TLR4) 0.1 ug/mL), 1.19.

With `COc1ccc(CCNCC(O)COc2cccc(C)c2)cc1OC.Cl` (centres undefined), the “IRF Lucia reporter activity” value in the assay on RAW-Dual [1] (setting [4]) stood at 1.13.

Turning to `COc1ccc(CCNCC(O)COc2cccc(C)c2)cc1OC.Cl` (centres undefined) (library stock concentration (final ~1000-fold dilution): 10 mM), the results for the “IRF Lucia reporter activity” value in the assay on RAW-Dual [2] (setting [5]) and with RAW-Dual [2] (agonist: LPS (TLR4) 0.1 ug/mL) were 1.03 and 1.42, respectively.

In the case of `COc1ccc(-c2cc(C(F)F)nn2-c2ccc(S(N)(=O)=O)cc2)cc1F` (library stock concentration (final ~1000-fold dilution): 10 mM), the “IRF Lucia reporter activity” value came out at 1.24 with RAW-Dual [2] (setting [5]) and 1.39 in the assay on RAW-Dual [2] (agonist: LPS (TLR4) 0.1 ug/mL).

With `COc1ccc(-c2cc(C(F)F)nn2-c2ccc(S(N)(=O)=O)cc2)cc1F`, the “IRF Lucia reporter activity” value in the assay with RAW-Dual [1] (setting [4]) was 1.43.
